Where “and” joins values, the source holds several entries; their conditions need not be identical. Equal entries are not always repeated. Inconclusive results, whose numbers are uncertain, are shown with a selection of clear calls. Where a call stands in place of a potency, no number is given. For some assays here: Where the call is inconclusive, the potency comes from a doubtful curve fit. Calls of active or inactive are those of the source. Unless noted, calls follow the shape of the dose curve; as a rule, active = well fitted curve in the direction sought with a large enough effect in the repeat runs; inconclusive = weak or mixed curves; inactive = no such curve, though single readings can be large; an effect the other way counts as inactive or inconclusive.
Key:
[1] = qHTS RealTime-Glo MT Cell Viability Assay in HEK293 cells - 24 hour (AID 1224886); also: top concentration of the series differs between compounds; nearly all actives have a fitted effect of over 50% in size
Outline: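 Viability tracked continuously by luminescence as live cells reduce a prosubstrate for NanoLuc; HEK293 cells preincubated 5 h, compound-treated at 37 C, and read at 0, 8, 16, 24, 32 and 40 h.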

[2] = Caspase-3/7 induction in CHO-K1 cells by small molecules, qHTS cell viability counter screen (AID 1346979); also: nearly all actives have a fitted effect of over 35% in size; also: potency is read from the fitted curve at half-maximal effect
Outline: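 Following a 5hr settling period, CHO-K1 cells at 1,500 per well received DMSO-dissolved compounds. Cell viability was quantified 16hr later by CellTiter-Fluor fluorescence, measured after 1hr with reagent at 37C.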

[3] = A CellTox Green Cytotoxicity Assay to monitor cytotoxicity in HEK293 cells - 32 hour (AID 1224881); also: nearly all actives have a fitted effect of over 40% in size; also: potency is read from the fitted curve at half-maximal effect
Outline: (§1)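 Each value comes from one timepoint of a single continuous run in which HEK293 cells with CellTox Green were exposed to compound for up to 40 h at 37 C, dye fluorescence rising with cell death.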

[4] = molecular target: Thyrotropin receptor (Homo sapiens) (UniProt P16473); assay: qHTS assay to identify small molecule antagonists of the thyroid stimulating hormone receptor (TSHR) signaling pathway (AID 1259385; calls by dose curve; also: nearly all actives have a fitted effect of over 20% in size; also: potency is read from the fitted curve at half-maximal effect); details: TSHR-HEK293 cAMP HTRF, TSH-stimulated antagonist mode; activity change, negative = inhibition: at 92.4 µM (top of the series) unless noted
Outline: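 TSHR-HEK293 cells (800/well) plated 18 h, then compounds with Ro20-1724 and TSH at 1.5 ng/mL final, 30 min at room temperature. cAMP quantified by HTRF (cAMP-d2/anti-cAMP-cryptate, 1 h); 15 concentrations in triplicate.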

[5] = A CellTox Green Cytotoxicity Assay to monitor cytotoxicity in HEK293 cells - 8 hour (AID 1224884); also: nearly all actives have a fitted effect of over 35% in size
Outline: as §1

[6] = molecular target: Bile acid receptor (Homo sapiens) (UniProt Q96RI1); assay: qHTS assay to identify small molecule antagonists of the farnesoid-X-receptor (FXR) signaling pathway (AID 743217; active = well fitted inhibition curve with a large enough effect in the signal ratio in the repeat runs, not every such curve was filed as active; inconclusive = weak or mixed curves, or effect the other way; inactive = no such curve, though single readings can be large or run the other way; the % refers to the signal ratio; also: potency is read from the fitted curve at half-maximal effect); details: HEK293T FXR-UAS-bla, beta-lactamase ratio, CDCA-stimulated, 16 h; activity change, negative = inhibition: at 62.6 µM (top of the series) unless noted
Outline: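 Beta-lactamase reporter under UAS control in HEK 293T cells; compound exposure 16 h at 37 °C in the presence of chenodeoxycholic acid (50 uM final); signal from B/G FRET substrate after 2 h at room temperature.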

[7] = qHTS assay to identify small molecule antagonists of the estrogen receptor beta (ER-beta) signaling pathway - cell viability counter screen (AID 1259382);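 also: HEK293T cells carrying ER-beta-UAS-bla reporter stimulated with estradiol; nearly all actives have a fitted effect of over 55% in size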
Outline: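 Tox21 10K library tested in qHTS format on ER-beta-bla HEK293T cells stimulated with 1nM E2; 16 hr treatment at 37C. Same-well CellTiter-Glo luminescence served as the cell viability measure.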

[8] = qHTS assay for small molecule activators of the heat shock response signaling pathway (AID 743210; active = well fitted activation curve with a large enough effect in the signal ratio in the repeat runs, with a control signal flat, not every such curve was filed as active; inconclusive = weak or mixed curves; the % refers to the signal ratio); details: HeLa HSE-bla reporter, beta-lactamase ratio, 5 h; activation: at 62.6 µM (top of the series) unless noted
Outline: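 HSE-bla HeLa cells (beta-lactamase reporter under heat shock response elements), plated overnight, then exposed to compounds 5 h at 37 C; LiveBLAzer B/G FRET substrate added, 2.5 h at room temperature, fluorescence intensity read.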

[9] = A CellTox Green Cytotoxicity Assay to monitor cytotoxicity in HepG2 cells - 24 hour (AID 1224878); also: nearly all actives have a fitted effect of over 45% in size; also: potency is read from the fitted curve at half-maximal effect
Outline: (§2)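 Continuous culture of HepG2 cells with a membrane-impermeant DNA dye; rising fluorescence marks dead cells. Compound exposure lasted up to 40 h at 37 C, with reads every 8 h from 0 h.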

[10] = A CellTox Green Cytotoxicity Assay to monitor cytotoxicity in HepG2 cells - 32 hour (AID 1224883); also: nearly all actives have a fitted effect of over 50% in size; also: potency is read from the fitted curve at half-maximal effect
Outline: as §2

[11] = molecular target: Nuclear receptor subfamily 1 group I member 2 (Homo sapiens) (UniProt O75469); assay: Human pregnane X receptor (PXR) small molecule agonists, qHTS assay (AID 1346982); also: nearly all actives have a fitted effect of over 35% in size; also: potency is read from the fitted curve at half-maximal effect
Outline: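 Luminescence (ONE-Glo, 30 min RT) after 24 hr compound exposure of PXR-Luc HepG2 cells; cells rested 5 hr post-plating in 5% charcoal-stripped FBS medium.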

[12] = qHTS assay to identify small molecule antagonists of the thyroid receptor (TR) signaling pathway (AID 743065); also: nearly all actives have a fitted effect of over 55% in size; also: potency is read from the fitted curve at half-maximal effect
Outline: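 GH3.TRE-Luc rat pituitary cells (two TREs driving luciferase) were dosed with compound, then stimulated with 1 nM T3 (final) for 23.5 h at 37 C. ONE-Glo luminescence was the read-out, with CellTiter-Fluor fluorescence as the cytotoxicity counter-screen.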

[13] = qHTS assay to identify aromatase inhibitors - cell viability counter screen (AID 743084); details: MCF-7 aro ERE viability, CellTiter-Fluor, 24 h; activity change, negative = cytotoxicity: at 70.3 µM (top of the series) unless noted;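 also: cells stimulated with testosterone during compound exposure; nearly all actives have a fitted effect of over 55% in size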; also: potency is read from the fitted curve at half-maximal effect
[14] = qHTS assay to identify small molecule that activate the aryl hydrocarbon receptor (AhR) signaling pathway - cell viability counter screen (AID 743086); also: nearly all actives have a fitted effect of over 45% in size; also: potency is read from the fitted curve at half-maximal effect
Outline: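 HepG2-AhR-luc (HG2L7.5c1) cells, 4000/well, treated 24 h at 37 C with compound; viability measured as CellTiter-Fluor fluorescence after 30 min in the same wells as the luciferase read.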

[15] = qHTS RealTime-Glo MT Cell Viability Assay in HEK293 cells - 8 hour (AID 1224887); also: top concentration of the series differs between compounds; nearly all actives have a fitted effect of over 50% in size
Outline: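 qHTS format; HEK293 cells with NanoLuc/prosubstrate reagent, 37 C/5% CO2 for 5 h pre-dosing; compounds 23 nL in DMSO; luminescence at each time point reflects viable cells.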

[16] = molecular target: Voltage-gated inwardly rectifying potassium channel KCNH2 (Homo sapiens) (UniProt Q12809); assay: Human Ether-a-go-go-Related Gene (hERG) channel small molecule antagonists: fluorescence cell-based qHTS assay (AID 1671200); also: nearly all actives have a fitted effect of over 50% in size; also: potency is read from the fitted curve at half-maximal effect;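 as to activity change, negative = inhibition: hERG-expressing U2OS cells given a thallium stimulus after FluxOR II dye loading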
Outline: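 In this thallium-flux screen, overnight-cultured U2OS cells bearing the channel are dye-loaded in darkness for an hour, rested 10 min at room temperature, and then monitored kinetically at 480/540 nm for two minutes post-stimulus.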

[17] = molecular target: Cytochrome P450 3A4 (Homo sapiens) (UniProt P08684); assay: Cytochrome P450 Family 3 Subfamily A Member 4 (CYP3A4) small molecule antagonists: luciferase reporter qHTS assay (AID 1671201); also: nearly all actives have a fitted effect of over 50% in size; also: potency is read from the fitted curve at half-maximal effect
Outline: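 CYP3A4 activity was followed with a P450-Glo proluciferin substrate. Test compounds in DMSO were preincubated 10 min; NADPH regeneration then ran 1 h, and light output was read 20 min after detection reagent.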

[18] = A CellTox Green Cytotoxicity Assay to monitor cytotoxicity in HepG2 cells - 8 hour (AID 1224890); also: nearly all actives have a fitted effect of over 45% in size; also: potency is read from the fitted curve at half-maximal effect
Outline: as §2
Tags tell the direction and shape of the fitted curve or compound fluorescence and quenching.

UniProt Q96RI1, sequence (Q96RI1 whole entry, looked up): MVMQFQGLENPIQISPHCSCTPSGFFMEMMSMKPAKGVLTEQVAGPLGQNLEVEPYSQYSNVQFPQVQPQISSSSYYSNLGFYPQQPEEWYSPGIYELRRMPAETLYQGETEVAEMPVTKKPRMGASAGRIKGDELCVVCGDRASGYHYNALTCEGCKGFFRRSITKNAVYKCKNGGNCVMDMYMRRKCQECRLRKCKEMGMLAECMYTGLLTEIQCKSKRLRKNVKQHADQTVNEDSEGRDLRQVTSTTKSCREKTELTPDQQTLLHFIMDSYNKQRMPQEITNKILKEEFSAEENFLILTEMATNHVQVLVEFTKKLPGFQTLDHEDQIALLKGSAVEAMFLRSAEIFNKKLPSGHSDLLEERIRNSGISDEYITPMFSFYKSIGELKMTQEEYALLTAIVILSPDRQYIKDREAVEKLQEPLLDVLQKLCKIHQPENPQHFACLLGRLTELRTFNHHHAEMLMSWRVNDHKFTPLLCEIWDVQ
UniProt Q12809, sequence (Q12809 whole entry, looked up): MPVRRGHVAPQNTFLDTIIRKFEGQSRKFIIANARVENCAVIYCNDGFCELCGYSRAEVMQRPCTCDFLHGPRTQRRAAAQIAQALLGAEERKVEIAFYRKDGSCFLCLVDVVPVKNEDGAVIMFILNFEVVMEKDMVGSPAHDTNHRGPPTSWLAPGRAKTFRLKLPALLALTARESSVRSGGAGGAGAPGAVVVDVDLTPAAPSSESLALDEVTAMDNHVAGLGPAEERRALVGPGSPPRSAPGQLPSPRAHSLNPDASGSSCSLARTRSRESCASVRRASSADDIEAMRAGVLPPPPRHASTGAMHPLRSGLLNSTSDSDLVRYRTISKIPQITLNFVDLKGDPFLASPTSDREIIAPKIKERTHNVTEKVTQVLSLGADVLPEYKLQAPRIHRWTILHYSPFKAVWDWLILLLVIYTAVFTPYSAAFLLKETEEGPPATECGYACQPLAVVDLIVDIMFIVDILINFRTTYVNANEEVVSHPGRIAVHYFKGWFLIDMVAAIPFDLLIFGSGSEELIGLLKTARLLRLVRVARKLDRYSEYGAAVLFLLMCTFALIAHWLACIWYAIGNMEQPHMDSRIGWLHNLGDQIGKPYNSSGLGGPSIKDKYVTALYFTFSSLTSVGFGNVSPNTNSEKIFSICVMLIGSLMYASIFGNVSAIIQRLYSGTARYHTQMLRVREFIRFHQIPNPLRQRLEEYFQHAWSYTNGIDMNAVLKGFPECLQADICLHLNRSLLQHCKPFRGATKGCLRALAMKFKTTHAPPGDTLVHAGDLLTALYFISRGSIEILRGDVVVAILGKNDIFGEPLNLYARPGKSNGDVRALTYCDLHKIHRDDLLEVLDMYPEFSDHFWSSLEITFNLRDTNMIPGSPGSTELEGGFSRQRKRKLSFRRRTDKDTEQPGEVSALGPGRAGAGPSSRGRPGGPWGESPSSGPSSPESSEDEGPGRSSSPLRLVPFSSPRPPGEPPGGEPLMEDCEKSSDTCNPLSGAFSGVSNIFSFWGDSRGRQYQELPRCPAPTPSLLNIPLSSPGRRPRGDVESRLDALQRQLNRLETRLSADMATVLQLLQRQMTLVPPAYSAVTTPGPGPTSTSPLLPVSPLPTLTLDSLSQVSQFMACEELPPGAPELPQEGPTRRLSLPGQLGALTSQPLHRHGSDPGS
UniProt P08684, sequence (P08684 whole entry, looked up): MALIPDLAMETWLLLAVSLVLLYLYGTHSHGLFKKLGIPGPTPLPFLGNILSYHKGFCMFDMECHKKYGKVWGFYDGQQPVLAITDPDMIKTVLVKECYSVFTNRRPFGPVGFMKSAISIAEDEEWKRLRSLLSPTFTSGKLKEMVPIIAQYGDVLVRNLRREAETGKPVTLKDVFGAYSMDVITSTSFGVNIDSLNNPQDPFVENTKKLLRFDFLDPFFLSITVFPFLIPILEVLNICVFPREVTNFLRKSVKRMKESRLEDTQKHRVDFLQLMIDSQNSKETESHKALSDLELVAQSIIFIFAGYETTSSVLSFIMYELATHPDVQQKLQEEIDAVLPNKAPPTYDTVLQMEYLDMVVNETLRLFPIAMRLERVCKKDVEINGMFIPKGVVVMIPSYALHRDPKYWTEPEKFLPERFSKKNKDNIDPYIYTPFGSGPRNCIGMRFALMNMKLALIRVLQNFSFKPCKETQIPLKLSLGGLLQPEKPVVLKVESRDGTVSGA
UniProt O75469, sequence (O75469 whole entry, looked up): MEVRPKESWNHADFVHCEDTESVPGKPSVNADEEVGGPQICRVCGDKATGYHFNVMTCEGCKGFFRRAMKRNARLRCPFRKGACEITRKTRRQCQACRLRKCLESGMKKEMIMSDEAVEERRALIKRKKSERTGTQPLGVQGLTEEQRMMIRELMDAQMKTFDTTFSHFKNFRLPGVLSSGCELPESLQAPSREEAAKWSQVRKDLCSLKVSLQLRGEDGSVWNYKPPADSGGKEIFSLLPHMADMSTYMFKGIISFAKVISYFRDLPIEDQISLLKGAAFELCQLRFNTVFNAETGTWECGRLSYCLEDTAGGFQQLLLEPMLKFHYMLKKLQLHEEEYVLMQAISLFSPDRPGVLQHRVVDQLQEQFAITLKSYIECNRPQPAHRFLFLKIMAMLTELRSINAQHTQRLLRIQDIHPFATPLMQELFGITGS
UniProt P16473, sequence (P16473 whole entry, looked up): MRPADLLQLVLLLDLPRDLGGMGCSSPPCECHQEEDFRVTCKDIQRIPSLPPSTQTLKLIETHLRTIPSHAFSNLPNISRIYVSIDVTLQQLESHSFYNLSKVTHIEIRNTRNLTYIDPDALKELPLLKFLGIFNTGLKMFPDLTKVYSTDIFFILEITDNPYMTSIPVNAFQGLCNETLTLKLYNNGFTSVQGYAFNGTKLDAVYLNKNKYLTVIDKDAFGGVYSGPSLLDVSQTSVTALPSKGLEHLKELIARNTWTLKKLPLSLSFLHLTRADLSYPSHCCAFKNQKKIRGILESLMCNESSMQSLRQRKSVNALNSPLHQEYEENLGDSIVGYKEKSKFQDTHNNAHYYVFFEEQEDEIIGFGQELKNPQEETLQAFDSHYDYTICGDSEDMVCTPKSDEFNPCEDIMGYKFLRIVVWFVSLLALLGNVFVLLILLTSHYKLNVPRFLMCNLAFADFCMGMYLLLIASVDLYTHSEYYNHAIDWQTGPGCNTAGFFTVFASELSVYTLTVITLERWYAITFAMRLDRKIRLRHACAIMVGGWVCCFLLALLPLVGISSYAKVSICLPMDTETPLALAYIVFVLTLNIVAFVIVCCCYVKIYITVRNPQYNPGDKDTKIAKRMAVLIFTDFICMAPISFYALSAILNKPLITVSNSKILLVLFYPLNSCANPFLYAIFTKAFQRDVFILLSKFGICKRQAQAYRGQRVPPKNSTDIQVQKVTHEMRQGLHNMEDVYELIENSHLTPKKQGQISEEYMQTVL

Cc1ncc(CO)c(CN)c1O
Potency [1]: inactive | Potency [2]: inconclusive: 33.5 µM [rising, single point]

O=[N+]([O-])c1cncn1CCN1CCOCC1
Potency [3]: inactive | Potency [4]: inactive

C1CCC2(CCCCO2)OC1
Potency [5]: inactive

CCCCCCCCCCCCCCBr
Potency [3]: inactive

C=C(C)C(=O)OCCOP(=O)(O)OCCOC(=O)C(=C)C
Potency [6]: inactive | Potency [3]: inactive | Potency [7]: inactive | Potency [4]: inconclusive: 2.73 µM [falling, single point]

CO[C@@H]1[C@@H](OC(N)=O)[C@@H](O)[C@H](Oc2ccc3c(O)c(NC(=O)c4ccc(O)c(CC=C(C)C)c4)c(=O)oc3c2C)OC1(C)C
Potency [5]: inactive | Potency [7]: inactive

CC(C)(O)C(=O)c1ccccc1
Potency [8]: inactive | Potency [9]: inactive

C[Si](C)(C)C
Potency [10]: inactive | Potency [11]: inconclusive: 51.9 µM [activator, partial curve]

NC(N)=O
Potency [12]: inconclusive: 61.1 µM [inhibitor, single point] | Potency [13]: inconclusive: 68.6 µM [rising, partial curve, poor fit] | Potency [14]: inconclusive: 33.5 µM [falling, single point] | Potency [3]: inconclusive: 61.6 µM [activator, single point] | Potency [15]: inactive

CC(=O)OCC(=O)[C@@]1(O)CC[C@H]2[C@@H]3CCC4=CC(=O)C=C[C@]4(C)[C@H]3[C@@H](O)C[C@@]21C
Potency [14]: inactive | Potency [2]: inconclusive: 33.5 µM

CCCC(=O)O[C@]1(C(=O)CO)CC[C@H]2[C@@H]3CCC4=CC(=O)CC[C@]4(C)[C@H]3[C@@H](O)C[C@@]21C
Potency [11]: inconclusive: 0.376 µM [activator, full curve, poor fit]

CC1=CCC(=O)O1
Potency [16]: inactive

O=C(O)[C@@H]1CSCN1
Potency [3]: inactive | Potency [5]: inactive | Potency [17]: inactive

COS(=O)(=O)O
activity change, negative = inhibition [6]: inconclusive: -4.04% | Potency [9]: inconclusive: 54.8 µM [activator, single point] | Potency [10]: inconclusive: 54.8 µM [activator, single point] | Potency [16]: inactive

CCCCCCCCCCC(CO)CCCCCCCC (centres undefined)
Potency [1]: inactive

COCCOC(=O)CC#N
Potency [8]: inactive | Potency [1]: inactive | Potency [4]: inactive

O=CN(CCO)CCO
Potency [10]: inactive | Potency [2]: inactive

c1coc(CNc2ncnc3nc[nH]c23)c1
Potency [9]: inactive

CO[C@@]1(NC(=O)Cc2cccs2)C(=O)N2C(C(=O)O)=C(COC(N)=O)CS[C@@H]21
Potency [1]: inactive | Potency [4]: inactive

CCn1nc(C(=O)O)c(=O)c2cc3c(cc21)OCO3
Potency [5]: inactive

C=C(C)C(=O)OCc1ccccc1
Potency [13]: inconclusive: 0.0109 µM [rising, full curve]

O=C(CO)[C@@H](O)[C@H](O)[C@@H](O)CO
Potency [9]: inconclusive: 26.8 µM [activator, single point] | Potency [18]: inconclusive: 26.8 µM [activator, single point]

O=S(O)O
Potency [17]: inconclusive: 15.1 µM [inhibitor, partial curve]

CCOC(=O)C(=O)c1csc(NC=O)n1
Potency [9]: inactive | Potency [2]: inconclusive: 16.8 µM [rising, partial curve]

N#CCCNCCC#N
Potency [12]: inactive | Potency [1]: inactive | Potency [2]: inactive

O=C1c2ccccc2C(=O)N1CO
Potency [8]: inactive | Potency [15]: inactive

O=[N+]([O-])c1ccc(F)cc1F
Potency [5]: inactive | Potency [17]: inactive

CO[Si](C)(OC)OC
Potency [8]: inactive | Potency [6]: inconclusive: 53.6 µM [inhibitor, single point] | Potency [10]: inconclusive: 53.6 µM [activator, single point] | Potency [17]: active: 4.91 µM

CCN1CCCC(OC(=O)C(c2ccccc2)c2ccccc2)C1 (centres undefined)
Potency [12]: inconclusive: 11.4 µM [inhibitor, single point] | Potency [13]: inconclusive: 0.0254 µM [rising, full curve, poor fit] | Potency [6]: inconclusive: 26.6 µM [inhibitor, partial curve]

CCOC(=O)[C@H](O)[C@@H](O)C(=O)OCC
Potency [3]: inactive | Potency [1]: inactive | Potency [2]: inactive

CCCCCCCCCCC1CO1 (centres undefined)
Potency [3]: inactive | Potency [7]: inactive | Potency [16]: inactive

Cc1ccccc1N1C(=O)c2cc(S(N)(=O)=O)c(Cl)cc2NC1C (centres undefined)
Potency [11]: active: 5.31 µM

O=P(O)(O)CP(=O)(O)O
Potency [12]: inactive

COc1cc([C@@H]2c3cc4c(cc3C(O[C@@H]3O[C@@H]5CO[C@@H](C)O[C@H]5[C@H](O)[C@H]3O)C3COC(=O)[C@@H]32)OCO4)cc(OC)c1OP(=O)(O)O (some centres undefined)
Potency [12]: active: 11.9 µM and inconclusive: 23.7 µM [inhibitor, partial curve] | Potency [14]: inconclusive: 8.41 µM [falling, full curve]

CCCCN=C(N)N=C(N)N
Potency [4]: inactive | Potency [11]: inactive

CN1[C@@H]2CC[C@H]1CC(NC(=O)n1c(=O)[nH]c3ccccc31)C2 (some centres undefined)
activity change, negative = inhibition [6]: inconclusive: -10.7% | Potency [16]: inconclusive: 21.3 µM [inhibitor, partial curve]

COc1cc(NS(=O)(=O)c2ccc(N)cc2)ncn1
Potency [7]: inactive

NC(=O)NC(=O)Cc1ccccc1
Potency [12]: inactive | Potency [15]: inactive

O=S(=O)(O)c1ccc2cc(O)ccc2c1
Potency [2]: inconclusive: 38.5 µM [rising, partial curve] and inconclusive: 34.4 µM [rising, partial curve]

CCN(CC)CCOc1ccc(-c2nc3cc(Cl)ccc3s2)cc1
Potency [13]: inconclusive: 33.5 µM [cytotoxic, partial curve, poor fit] | Potency [14]: inconclusive: 23.7 µM [falling, partial curve]

CCC(=O)c1ccc2c(c1)N(CCCN1CCN(CCO)CC1)c1ccccc1S2
Potency [14]: inconclusive: 13.3 µM [falling, partial curve]

C=C[C@]1(C)C[C@@H](OC(=O)CSCCN(CC)CC)[C@]2(C)[C@H](C)CC[C@]3(CCC(=O)[C@H]32)[C@@H](C)[C@@H]1O
Potency [12]: active: 23.7 µM | Potency [13]: inconclusive: 29.8 µM [cytotoxic, single point]

N#Cc1ccc2c(c1)N(CCCN1CCC(O)CC1)c1ccccc1S2
Potency [14]: inconclusive: 33.5 µM [falling, single point]

C=C[C@]1(C)C[C@@H](OC(=O)CSC(C)(C)CNC(=O)[C@H](N)C(C)C)[C@]2(C)[C@H](C)CC[C@]3(CCC(=O)[C@H]32)[C@@H](C)[C@@H]1O
Potency [12]: active: 13.3 µM | Potency [13]: active: 2.98 µM

CCCOCCOCCOCCO
Potency [7]: inactive

CC/C(C)=N/O
Potency [2]: inactive | Potency [17]: inactive

CC(C)CCCC(C)CCCC(C)CCCCC(C)CCCC(C)CCCC(C)C (centres undefined)
Potency [8]: inactive | Potency [2]: inconclusive: 23.7 µM [rising, partial curve, poor fit]

CC(C)(C)C1(O)CCN2CC3c4ccccc4CCc4cccc(c43)C2C1 (centres undefined)
Potency [13]: inconclusive: 33.5 µM [cytotoxic, single point] | Potency [14]: inconclusive: 33.5 µM [falling, single point]

O=C(O)c1c(Cl)c(Cl)c(Cl)c(Cl)c1-c1c2cc(I)c(=O)c(I)c-2oc2c(I)c(O)c(I)cc12
Potency [13]: active: 23.7 µM

CC(=O)SCC(CC(=O)c1ccc(C)cc1)C(=O)O (centres undefined)
Potency [12]: inactive

Cc1nccn1CC1CCc2c(c3ccccc3n2C)C1=O (centres undefined)
Potency [18]: inactive | Potency [4]: inconclusive: 0.473 µM [falling, single point]

CC(=O)Nc1ccccc1C
Potency [18]: inactive | Potency [4]: inactive

Cc1ccc(S(=O)(=O)NC(=O)NN2CC3CCCC3C2)cc1 (centres undefined)
Potency [18]: inactive

c1ccc2c(c1)Sc1ccccc1N2CCN1CCCC1
Potency [13]: inactive | Potency [14]: inconclusive: 29.8 µM [falling, partial curve]

From PubChem BioAssay (Tox21)
